In US20180339066A1, “Methods and Compositions for Enhancing Transduction Efficiency of Retroviral Vectors” (The Scripps Research Institute, priority 2013, published 2018):

System: stimulated cord blood CD34+ cells
Assay: Quantification of HIV-1 reverse transcription products by qPCR
Conditions: MOI=25, 20 μg/ml rapamycin
Method: Quantification of HIV-1 reverse transcription products. Stimulated cord blood CD34^+ cells (2-3E5) were transduced with an MOI of 25 in the presence of 20 μg/ml rapamycin or DMSO, and harvested at 6, 12, or 24 hours after the start of transduction by freezing cell pellets at −80° C. Total DNA was extracted using the QiaAmp DNA mini kit, and treated with Dpnl for 2-4 hours to eliminate plasmid DNA. Quantitative PCR was carried out on the Roche LightCycler 480 using previously published primer and probe sequences (Prasad et al., HIV Protocols: Second Edition 485, 2009).
We examined the kinetics of vector entry and reverse transcription to elucidate the replication step facilitated by rapamycin. The amount of cytoplasmic entry of viral cores can be determined by transducing cells with a vector carrying the HIV-1 accessory protein Vpr fused to β-lactamase (BLAM), and quantifying the blue fluorescence of a cleaved BLAM substrate by flow cytometry (see, e.g., Tobiume et al., J. Virol. 77:10645-50, 2003). […] In addition, we quantified the amount of reverse transcription and nuclear import products by qPCR, and found 2-to-3-fold increase in the per cell amount of viral strong-stop DNA, full-length DNA, and 2-LTR circles in the presence of rapamycin (FIG. 7B-D). […]

Compound: CO[C@H]1C[C@@H]2CC[C@@H](C)[C@@](O)(O2)C(=O)C(=O)N2CCCC[C@H]2C(=O)O[C@H]([C@H](C)C[C@@H]2CC[C@@H](O)[C@H](OC)C2)CC(=O)[C@H](C)/C=C(\C)[C@@H](O)[C@@H](OC)C(=O)[C@H](C)C[C@H](C)/C=C/C=C/C=C/1C [rapamycin]
- increase in per cell amount of viral strong-stop DNA: 2-to-3 fold
